Some of the results follow.
Assays:
Experiment in all cases: glycan array binding signal (z-score within array); higher = stronger binding
Conditions in all cases: glycan notation: IUPAC condensed, linker removed
Fuc(a1-2)Gal = target: Fuc(a1-2)Gal
Outline: (§1)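 The binding signal is a Z-score computed within each array. Data were drawn from 3228 arrays in the Consortium for Functional Glycomics database, restricted to those with a known protein sequence. Scores were averaged over arrays of the same protein sequence at different concentrations or buffers, and over linkers, and negative values can be taken as non-binding.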

Fuc(a1-2)Gal(b1-3)GalNAc = target: Fuc(a1-2)Gal(b1-3)GalNAc
Outline: as §1

[1] = target: Fuc(a1-2)Gal(b1-3)GalNAc(a1-3)[Fuc(a1-2)]Gal(b1-4)Glc
Outline: as §1

[2] = target: Fuc(a1-2)Gal(b1-3)GalNAc(a1-3)[Fuc(a1-2)]Gal(b1-4)GlcNAc
Outline: as §1

[3] = target: Fuc(a1-2)Gal(b1-3)GalNAc(b1-3)Gal
Outline: as §1

[4] = target: Fuc(a1-2)Gal(b1-3)GalNAc(b1-3)Gal(a1-4)Gal(b1-4)Glc
Outline: as §1

[5] = target: Fuc(a1-2)Gal(b1-3)GalNAc(b1-4)[Neu5Ac(a2-3)]Gal(b1-4)Glc
Outline: as §1

Fuc(a1-2)Gal(b1-3)GlcNAc = target: Fuc(a1-2)Gal(b1-3)GlcNAc
Outline: as §1

[6] = target: Fuc(a1-2)Gal(b1-3)GlcNAc(b1-2)Man(a1-3)[Fuc(a1-2)Gal(b1-3)GlcNAc(b1-2)Man(a1-6)]Man(b1-4)GlcNAc(b1-4)GlcNAc
Outline: as §1

[7] = target: Fuc(a1-2)Gal(b1-3)GlcNAc(b1-2)Man(a1-3)[Fuc(a1-2)Gal(b1-3)GlcNAc(b1-2)Man(a1-6)]Man(b1-4)GlcNAc(b1-4)[Fuc(a1-6)]GlcNAc
Outline: as §1

[8] = target: Fuc(a1-2)Gal(b1-3)GlcNAc(b1-3)Gal(b1-4)Glc
Outline: as §1

[9] = target: Fuc(a1-2)Gal(b1-3)GlcNAc(b1-3)GalNAc
Outline: as §1

[10] = target: Fuc(a1-2)Gal(b1-3)GlcNAc(b1-3)[Fuc(a1-2)Gal(b1-3)GlcNAc(b1-6)]GalNAc
Outline: as §1

[11] = target: Fuc(a1-2)Gal(b1-3)GlcNAc(b1-3)[Gal(b1-4)GlcNAc(b1-6)]Gal(b1-4)Glc
Outline: as §1

[12] = target: Fuc(a1-2)Gal(b1-3)GlcNAc(b1-3)[Neu5Ac(a2-6)Gal(b1-4)GlcNAc(b1-6)]Gal(b1-4)Glc
Outline: as §1

[13] = target: Fuc(a1-2)Gal(b1-3)GlcNAc6S
Outline: as §1

[14] = target: Fuc(a1-2)Gal(b1-3)[Fuc(a1-4)]GlcNAc
Outline: as §1

[15] = target: Fuc(a1-2)Gal(b1-3)[Fuc(a1-4)]GlcNAc(b1-2)Man(a1-3)[Fuc(a1-2)Gal(b1-3)[Fuc(a1-4)]GlcNAc(b1-2)Man(a1-3)]Man(b1-4)GlcNAc(b1-4)GlcNAc
Outline: as §1

[16] = target: Fuc(a1-2)Gal(b1-3)[Fuc(a1-4)]GlcNAc(b1-2)Man(a1-3)[Fuc(a1-2)Gal(b1-3)[Fuc(a1-4)]GlcNAc(b1-2)Man(a1-6)]Man(b1-4)GlcNAc(b1-4)[Fuc(a1-6)]GlcNAc(b1-4)[Fuc(a1-6)]GlcNAc
Outline: as §1

[17] = target: Fuc(a1-2)Gal(b1-3)[Fuc(a1-4)]GlcNAc(b1-3)[Fuc(a1-3)[Gal(b1-4)]GlcNAc(b1-6)]Gal(b1-4)Glc
Outline: as §1

[18] = target: Fuc(a1-2)Gal(b1-3)[Fuc(a1-4)]GlcNAc(b1-3)[Gal(b1-4)GlcNAc(b1-6)]Gal(b1-4)Glc
Outline: as §1

Fuc(a1-2)Gal(b1-4)Glc = target: Fuc(a1-2)Gal(b1-4)Glc
Outline: as §1

Fuc(a1-2)Gal(b1-4)Glc6S = target: Fuc(a1-2)Gal(b1-4)Glc6S
Outline: as §1

Fuc(a1-2)Gal(b1-4)GlcNAc = target: Fuc(a1-2)Gal(b1-4)GlcNAc
Outline: as §1

[19] = target: Fuc(a1-2)Gal(b1-4)GlcNAc(b1-2)Man
Outline: as §1

[20] = target: Fuc(a1-2)Gal(b1-4)GlcNAc(b1-2)Man(a1-3)[Fuc(a1-2)Gal(b1-4)GlcNAc(b1-2)Man(a1-6)]Man(b1-4)GlcNAc(b1-4)GlcNAc
Outline: as §1

[21] = target: Fuc(a1-2)Gal(b1-4)GlcNAc(b1-2)Man(a1-3)[Fuc(a1-2)Gal(b1-4)GlcNAc(b1-2)Man(a1-6)]Man(b1-4)GlcNAc(b1-4)[Fuc(a1-6)]GlcNAc
Outline: as §1

[22] = target: Fuc(a1-2)Gal(b1-4)GlcNAc(b1-2)[Fuc(a1-2)Gal(b1-4)GlcNAc(b1-4)]Man(a1-3)[Fuc(a1-2)Gal(b1-4)GlcNAc(b1-2)Man(a1-6)]Man(b1-4)GlcNAc(b1-4)GlcNAc
Outline: as §1

[23] = target: Fuc(a1-2)Gal(b1-4)GlcNAc(b1-3)Gal(b1-4)GlcNAc
Outline: as §1

[24] = target: Fuc(a1-2)Gal(b1-4)GlcNAc(b1-3)Gal(b1-4)GlcNAc(b1-2)Man(a1-3)[Fuc(a1-2)Gal(b1-4)GlcNAc(b1-3)Gal(b1-4)GlcNAc(b1-2)Man(a1-6)]Man(b1-4)GlcNAc(b1-4)GlcNAc
Outline: as §1

B1: Pwp4 (Candida glabrata) (protein)
chain: MGSSHHHHHHSSGLVPRGSHMASVGNPITVSNVCSFPKNWHRTAGFRALTARLGIGIQSDSYKELLNYPGTFQLTTQQSSTTKPNFQISGLVGNIYGLTIVPSYLLVELTGYFVPPVSGEYTFSLEGSDDAAIIFIANPSTFKCGHVEDWPTAYDNDVTVTESIHATRTIYMIEGVAYPIRIAYYNGLSLGKLQASFTDPEGVKRVDWNGYIWRYDSCDTCSYV
In the case of B1, the “glycan array binding signal (z-score)” value (Fuc(a1-2)Gal) is reported as -0.516, the “glycan array binding signal (z-score)” value (Fuc(a1-2)Gal(b1-3)GalNAc) is reported as 0.041 and the “glycan array binding signal (z-score)” value [1] is reported as -0.7. For the same binder, the “glycan array binding signal (z-score)” value [2] was 0.36, the “glycan array binding signal (z-score)” value [3] was 0.223 and the “glycan array binding signal (z-score)” value [4] was -0.514. For the same binder, the “glycan array binding signal (z-score)” value [5] was -0.446, the “glycan array binding signal (z-score)” value (Fuc(a1-2)Gal(b1-3)GlcNAc) was -0.913 and the “glycan array binding signal (z-score)” value [6] was 0.141. For the same binder, the “glycan array binding signal (z-score)” value [7] was -0.308, the “glycan array binding signal (z-score)” value [8] was -0.652 and the “glycan array binding signal (z-score)” value [9] was -0.453. The “glycan array binding signal (z-score)” value [10] was -0.28, the “glycan array binding signal (z-score)” value [11] was -0.496 and the “glycan array binding signal (z-score)” value [12] was -0.546. For the same binder, the “glycan array binding signal (z-score)” value [13] was -0.411, the “glycan array binding signal (z-score)” value [14] was -0.432 and the “glycan array binding signal (z-score)” value [15] was -0.045. The “glycan array binding signal (z-score)” value [16] was 0.426, the “glycan array binding signal (z-score)” value [17] was -0.715 and the “glycan array binding signal (z-score)” value [18] was -0.507. For the same binder, the “glycan array binding signal (z-score)” value (Fuc(a1-2)Gal(b1-4)Glc) was -0.568, the “glycan array binding signal (z-score)” value (Fuc(a1-2)Gal(b1-4)Glc6S) was -0.379 and the “glycan array binding signal (z-score)” value (Fuc(a1-2)Gal(b1-4)GlcNAc) was -0.001. For the same binder, the “glycan array binding signal (z-score)” value [19] was -0.355, the “glycan array binding signal (z-score)” value [20] was -0.263 and the “glycan array binding signal (z-score)” value [21] was 0.039. For the same binder, the “glycan array binding signal (z-score)” value [22] was 1.93, the “glycan array binding signal (z-score)” value [23] was 0.424 and the “glycan array binding signal (z-score)” value [24] was -0.108.

From the supplement of paper PMC8728848
